Reference: the supplement of paper PMC8728848
Some of the results follow.

Tests used:
Test in all cases: glycan array binding signal (z-score within array); higher = stronger binding
Conditions in all cases: glycan notation: IUPAC condensed, linker removed
[1] = target: Gal(b1-4)GlcNAc(b1-2)Man(a1-3)[Gal(b1-4)GlcNAc(b1-2)Man(a1-6)]Man(b1-4)GlcNAc(b1-4)GlcNAc
Summary of the method: (§1)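 Glycan array binding is given as a within-array Z-score, which can be read as non-binding when negative. The arrays, 3228 of them, came from the Consortium for Functional Glycomics database and were retained only where the protein sequence was available. Z-scores were averaged across arrays of the same protein sequence at different concentrations or buffers and across linkers.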

[2] = target: Gal(b1-4)GlcNAc(b1-2)Man(a1-3)[Gal(b1-4)GlcNAc(b1-2)Man(a1-6)]Man(b1-4)GlcNAc(b1-4)[Fuc(a1-6)]GlcNAc
Summary of the method: as §1

[3] = target: Gal(b1-4)GlcNAc(b1-2)Man(a1-3)[Gal(b1-4)GlcNAc(b1-2)Man(a1-6)][Gal(b1-4)GlcNAc(b1-4)]Man(b1-4)GlcNAc(b1-4)[Fuc(a1-6)]GlcNAc
Summary of the method: as §1

[4] = target: Gal(b1-4)GlcNAc(b1-2)Man(a1-3)[Gal(b1-4)GlcNAc(b1-2)Man(a1-6)][GlcNAc(b1-4)]Man(b1-4)GlcNAc(b1-4)[Fuc(a1-6)]GlcNAc
Summary of the method: as §1

[5] = target: Gal(b1-4)GlcNAc(b1-2)Man(a1-3)[GlcNAc(b1-2)Man(a1-6)]Man(b1-4)GlcNAc(b1-4)GlcNAc
Summary of the method: as §1

[6] = target: Gal(b1-4)GlcNAc(b1-2)Man(a1-3)[GlcNAc(b1-4)][Gal(b1-4)GlcNAc(b1-2)Man(a1-6)]Man(b1-4)GlcNAc(b1-4)GlcNAc
Summary of the method: as §1

[7] = target: Gal(b1-4)GlcNAc(b1-2)Man(a1-3)[Man(a1-6)]Man(b1-4)GlcNAc(b1-4)GlcNAc
Summary of the method: as §1

[8] = target: Gal(b1-4)GlcNAc(b1-2)Man(a1-6)Man(b1-4)GlcNAc(b1-4)GlcNAc
Summary of the method: as §1

[9] = target: Gal(b1-4)GlcNAc(b1-2)Man(a1-6)[GlcNAc(b1-2)Man(a1-3)]Man(b1-4)GlcNAc(b1-4)GlcNAc
Summary of the method: as §1

[10] = target: Gal(b1-4)GlcNAc(b1-2)Man(a1-6)[Man(a1-3)]Man(b1-4)GlcNAc(b1-4)GlcNAc
Summary of the method: as §1

[11] = target: Gal(b1-4)GlcNAc(b1-2)[Gal(b1-4)GlcNAc(b1-4)]Man(a1-3)[Gal(b1-4)GlcNAc(b1-2)Man(a1-6)]Man(b1-4)GlcNAc(b1-4)GlcNAc
Summary of the method: as §1

[12] = target: Gal(b1-4)GlcNAc(b1-2)[Gal(b1-4)GlcNAc(b1-4)]Man(a1-3)[Gal(b1-4)GlcNAc(b1-2)[Gal(b1-4)GlcNAc(b1-6)]Man(a1-6)]Man(b1-4)GlcNAc(b1-4)GlcNAc
Summary of the method: as §1

[13] = target: Gal(b1-4)GlcNAc(b1-2)[Gal(b1-4)GlcNAc(b1-4)]Man(a1-3)[GlcNAc(b1-4)][Gal(b1-4)GlcNAc(b1-2)Man(a1-6)]Man(b1-4)GlcNAc(b1-4)GlcNAc
Summary of the method: as §1

[14] = target: Gal(b1-4)GlcNAc(b1-2)[Gal(b1-4)GlcNAc(b1-4)]Man(a1-3)[GlcNAc(b1-4)][Gal(b1-4)GlcNAc(b1-2)[Gal(b1-4)GlcNAc(b1-6)]Man(a1-6)]Man(b1-4)GlcNAc(b1-4)GlcNAc
Summary of the method: as §1

[15] = target: Gal(b1-4)GlcNAc(b1-2)[Gal(b1-4)GlcNAc(b1-6)]Man(a1-6)[Gal(b1-4)GlcNAc(b1-2)Man(a1-3)]Man(b1-4)GlcNAc(b1-4)GlcNAc
Summary of the method: as §1

[16] = target: Gal(b1-4)GlcNAc(b1-2)[Gal(b1-4)GlcNAc(b1-6)]Man(a1-6)[Gal(b1-4)GlcNAc(b1-2)Man(a1-3)]Man(b1-4)GlcNAc(b1-4)[Fuc(a1-6)]GlcNAc
Summary of the method: as §1

[17] = target: Gal(b1-4)GlcNAc(b1-2)[Gal(b1-4)GlcNAc(b1-6)]Man(a1-6)[GlcNAc(b1-4)][Gal(b1-4)GlcNAc(b1-2)Man(a1-3)]Man(b1-4)GlcNAc(b1-4)GlcNAc
Summary of the method: as §1

[18] = target: Gal(b1-4)GlcNAc(b1-2)[Gal(b1-4)GlcNAc(b1-6)]Man(a1-6)[GlcNAc(b1-4)][Gal(b1-4)GlcNAc(b1-2)[Gal(b1-4)GlcNAc(b1-4)]Man(a1-3)]Man(b1-4)GlcNAc(b1-4)[Fuc(a1-6)]GlcNAc
Summary of the method: as §1

[19] = target: Gal(b1-4)GlcNAc(b1-3)Gal(b1-3)GalNAc
Summary of the method: as §1

B1: DC-ASGPR L+GEE (Homo sapiens) (protein)
chain: MTRTYENFQYLENKVKVQGFKNGPLPLQSLLQRLRSGPCHLLLSLGLGLLLLVIICVVGFQNSKFQRDLVTLRTDFSNFTSNTVAEIQALTSQGSSLEETIASLKAEVEGFKQERQAGVSELQEHTTQKAHLGHCPHCPSVCVPVHSEMLLRVQQLVQDLKKLTCQVATLNNNGEEASTEGTCCPVNWVEHQDSCYWFSHSGMSWAEAEKYCQLKNAHLVVINSREEQNFVQKYLGSAYTWMGLSDPEGAWKWVDGTDYATGFQNWKPGQPDDWQGHGLGGGEDCAHFHPDGRWNDDVCQRPYHWVCEAGLGQTSQESH
In the case of B1, the “glycan array binding signal (z-score)” value [1] is reported as -0.343, the “glycan array binding signal (z-score)” value [2] is reported as -0.007 and the “glycan array binding signal (z-score)” value [3] is reported as -0.406. The “glycan array binding signal (z-score)” value [4] was -0.391, the “glycan array binding signal (z-score)” value [5] was 0.038 and the “glycan array binding signal (z-score)” value [6] was -0.418. For the same binder, the “glycan array binding signal (z-score)” value [7] was -0.031, the “glycan array binding signal (z-score)” value [8] was -0.364 and the “glycan array binding signal (z-score)” value [9] was 0.573. For the same binder, the “glycan array binding signal (z-score)” value [10] was 0.114, the “glycan array binding signal (z-score)” value [11] was -0.114 and the “glycan array binding signal (z-score)” value [12] was -0.562. For the same binder, the “glycan array binding signal (z-score)” value [13] was -0.308, the “glycan array binding signal (z-score)” value [14] was -0.775 and the “glycan array binding signal (z-score)” value [15] was -0.462. The “glycan array binding signal (z-score)” value [16] was 0.041, the “glycan array binding signal (z-score)” value [17] was -0.309 and the “glycan array binding signal (z-score)” value [18] was -0.524. For the same binder, the “glycan array binding signal (z-score)” value [19] was -0.773.
